Data taken from PubChem BioAssay AID686978 (National Center for Advancing Translational Sciences (NCATS), 2013).
Out of some 420,000 compounds screened, about 64,000 (15%) were called active. The inconclusive results got no clear call from the source; some entries with a clear call stand among them for comparison. Calls follow the shape of the dose curve; as a rule, active = well fitted inhibition curve with a large enough effect; inconclusive = small, poorly fitted or top-dose-only effect; inactive = flat fitted curve, though single readings scatter. No potency is given beside an inconclusive call; the fits are too rough.

Experiment: qHTS for Inhibitors of human tyrosyl-DNA phosphodiesterase 1 (TDP1): qHTS in cells in absence of CPT; also: nearly all actives have a fitted effect of over 55% in size
Conditions: DT40 Tdp1-/- hTDP1 cells, no CPT, ATP luminescence, 48 h; activity change, negative = growth inhibition: at 46.2 µM (top of the series)
Method in brief: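 Compound effects on proliferation are scored in DT40 Tdp1-/-;hTDP1 cells in the absence of CPT. ATP levels (CellTiter-Glo luminescence) are recorded after a ≥48 hr, 37 °C incubation.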
% is scaled to controls: 0 for no effect and ±100 for the full control effect; potency is read from the fitted curve at half-maximal effect; tags tell the direction and shape of the fitted curve.

Structure (SMILES) | Potency | activity change, negative = growth inhibition
O=C(O)CCC(=O)NCCn1c(-c2ccccc2)csc1=Nc1ccccc1 | inactive | –
COc1ccc(S(=O)(=O)N2CCCCCC2)cc1NC(=O)c1c2c(nc3ccccc13)CCN(Cc1ccccc1)C2 | inconclusive [inhibitor, single point] | –
CN1CCN(c2ccc(CNC(=O)C3Cc4c(-c5ccccc5Oc5ccccc5)ccnc4O3)cc2)CC1 (stereo unspecified) | inconclusive [inhibitor, single point] | –
CN(C)c1ccc(NC(=O)CCCCCn2nnc3ccccc3c2=O)cc1 | inconclusive [inhibitor, single point] | –
O=C1NC(=S)SC1=C1CCCC1 | – | inactive: 1.18%
O=c1oc2cc(OCc3ccc(C(F)(F)F)cc3)ccc2cc1-c1ccccn1 | – | inactive: -24.3%
Cn1cc(/C=N/NC(=O)c2cccc([N+](=O)[O-])c2)c2ccccc21 | – | inactive: -28.1%
C=CCOC(=O)C1=C(C)NC(C)=C(C(=O)OCC=C)C1c1cccs1 | active: 18.4 µM | –
CCOC(=O)c1cc(-c2ccc(C)cc2)n(CC(=O)NC2CCCCCC2)c1C | inconclusive [inhibitor, single point] | –
CC1(C)CC(=O)C(N=Nc2ccc(OC(F)F)cc2)=C(O)C1 | – | inactive: -14.7%
CCC(NS(=O)(=O)c1ccc2c(c1)NC(=O)C(C)C(=O)N2)c1cccs1 (stereo unspecified) | – | inactive: -6.06%
CCOC(=O)c1cnc2ccc(OC)cc2c1Nc1ccc2c(c1)OCCO2 | active: 18.4 µM | –
Cc1cc2nc(-c3cccc(NC(=O)CSc4ccc(Cl)cc4)c3)oc2cc1C | inconclusive [inhibitor, single point] | –
COc1cccc(NS(=O)(=O)c2ccc3c(c2)CCCN3C(=O)C2CCC2)c1 | inconclusive [inhibitor, single point] | –
N=C(N)SCc1nc2ccccc2c(=O)n1-c1ccccc1 | active: 18.4 µM | –
O=C(Nc1nc(=O)c2ccccc2s1)c1ccc(Cl)cc1 | inconclusive [inhibitor, single point] | –
CC(C)c1ccc(Nc2nc3c(S(=O)(=O)c4ccc(Br)cc4)nnn3c3ccsc23)cc1 | inconclusive [inhibitor, full curve, poor fit] | –
O=C(Nc1cccnc1)c1sc(Nc2ccccc2F)nc1-c1ccccc1 | inconclusive [inhibitor, full curve, poor fit] | –
CCCN(C(=O)c1cc2c(s1)-c1c(C)cccc1OC2)c1ccc(OCC)cc1 | active: 5.17 µM | –
Cc1ccc(OCC(=O)O/N=C(\N)c2cccc([N+](=O)[O-])c2)cc1C | inconclusive [inhibitor, partial curve, poor fit] | –
CCOC(=O)C1=CN(Cc2cccc(Br)c2)S(=O)(=O)N(CC)C1C (stereo unspecified) | inconclusive [inhibitor, partial curve, poor fit] | –
O=C(Nc1cccc(S(=O)(=O)NC2=NCCC2)c1)c1c(F)cccc1Cl | inconclusive [inhibitor, single point] | –
COc1ccc(C2c3[nH]c4ccc(OC)cc4c3CCN2C(=O)Nc2ccccc2)cc1 (stereo unspecified) | inconclusive [inhibitor, single point] | –
Cc1csc(=O)n1CC(=O)OCC(=O)c1c(N)n(CC(C)C)c(=O)n(C)c1=O | active: 23.1 µM | –

Structure (SMILES) | Potency | activity change, negative = growth inhibition
N/C(=N\OC(=O)Nc1ccccc1)c1ncc([N+](=O)[O-])s1 | active: 8.2 µM | –
CSc1ccccc1NC(=O)CN(C)C(=O)CNc1ccc(C(F)(F)F)cc1[N+](=O)[O-] | inconclusive [inhibitor, single point] | –
O=C(Nc1c(Cl)cccc1Cl)c1cc(-c2cccc(O)c2)on1 | inconclusive [inhibitor, single point] | –
O=C(NCC1CCCO1)C1CCCN(S(=O)(=O)c2ccc(Cl)cc2)C1 (stereo unspecified) | – | inactive: -6.73%
Cc1cccc(-c2c3c(=O)n(C)c(=O)n(C)c3c3cnc4ccccc4n23)c1 | inconclusive [inhibitor, full curve] | –
COc1cc(NC(=S)NC(=O)c2ccc(C)cc2C)ccc1NC(=O)c1cccs1 | inconclusive [inhibitor, single point] | –
O=C(COC(=O)c1ccc(Cl)nc1)NC1CCCCCC1 | – | inactive: 13.6%
Cc1nonc1CN(C)C(=O)CC1C(=O)NCCN1Cc1ccc(F)c(F)c1 (stereo unspecified) | – | inactive: -5.72%
Cc1ccc(NC(=O)Cn2cc(S(=O)(=O)c3ccccc3)c(=O)c3cc4c(cc32)OCO4)cc1 | inconclusive [inhibitor, single point] | –
O=C(NCc1ccc(Cl)cc1)c1cccc(S(=O)(=O)N2CCCC2)c1 | – | inactive: -27%
Cc1nc([N+](=O)[O-])c(C(=O)O)n1C | – | inactive: -14.8%
CSCCC(C(=O)Nc1c(C)cccc1C)N1CCN(c2ccc(F)cc2)CC1 (stereo unspecified) | active: 20.6 µM | –
CCOC(=O)C1=CN(Cc2cccc(F)c2)S(=O)(=O)N(C)C1CCc1ccccc1 (stereo unspecified) | inconclusive [inhibitor, single point] | –
Cc1c(C(=O)NC2CCCc3ccccc32)cccc1[N+](=O)[O-] (stereo unspecified) | active: 13 µM | –
O=C(N1CCOCC1)N1CCc2ccccc21 | – | inactive: 6.27%
Cn1c(=O)c2[nH]c(N/N=C(/C#N)C(N)=O)nc2n(C)c1=O | inconclusive [inhibitor, single point] | –
COc1ccc(NC(=O)C2(C)CCN2Cc2ccccc2OC(F)F)cc1OC (stereo unspecified) | active: 11.6 µM | –
Cc1noc(/C=C/N(C)C)c1S(=O)(=O)N1CCCC(C(=O)NC2CCCCC2)C1 (stereo unspecified) | inconclusive [inhibitor, partial curve, poor fit] | –
CCn1c(CNC(=O)Cc2ccc(OC)cc2)nnc1SCC(=O)c1ccc(Br)cc1 | – | inconclusive: -30.4% [inhibitor]
CCCCCOc1ccc(C(=O)NCC(=O)NCC(=O)OCC)cc1 | active: 20.6 µM | –
CCn1c(CNc2cccc(Cl)c2)nnc1SCc1ccccc1 | – | inconclusive: -30.2% [inhibitor]
CC1CC(C)CN(CCCNC(=O)c2ccc3c(c2)NC(=O)C(N2CCCCC2)S3)C1 (stereo unspecified) | inconclusive [inhibitor, partial curve, poor fit] | –
FC(F)(F)c1cccc(-c2cc(C3CCNCC3)[nH]n2)c1 | inconclusive [inhibitor, single point] | –
CCN(CCN(C)C)C(=O)C1CCN(S(=O)(=O)c2c(C)noc2/C=C/c2ccccc2F)CC1 | active: 4.61 µM | –

Structure (SMILES) | Potency | activity change, negative = growth inhibition
O=C(Nc1cc(C(F)(F)F)ccc1F)C1Cc2c(-c3ccccc3Oc3ccccc3)ccnc2O1 (stereo unspecified) | active: 18.4 µM | –
COC(=O)Cc1c(C)c2cc3c(c(C)c2oc1=O)OCN(CCc1ccc(OC)cc1)C3 | inconclusive [inhibitor, full curve, poor fit] | –
COc1ccc(OC)c(NC(=S)N(CCc2c(C)[nH]c3ccccc23)Cc2cccs2)c1 | inconclusive [inhibitor, single point] | –
Nc1cc(=O)[nH]c(SCC(=O)Nc2ccc(N3CCOCC3)cc2)n1 | – | inactive: -0.45%
O=C(Nc1ccc(C(=O)N2CCN(c3ccccn3)CC2)cc1)c1ccc(Br)o1 | inconclusive [inhibitor, partial curve] | –
CCN1/C(=C/c2ccc3cc(C)ccc3[n+]2CC)Sc2cc(C)ccc21 | active: 0.013 µM | –
CCN(CC)c1ccc2cc(-c3nc(-c4cc(OC)c(OC)c(OC)c4)no3)c(=O)oc2c1 | active: 10.3 µM | –
CN(C)c1oc(-c2ccccc2[N+](=O)[O-])nc1C#N | inconclusive [inhibitor, single point] | –
CN(C)c1ncc(CN2CCC(CO)(CCCc3ccccc3)CC2)s1 | inconclusive [inhibitor, single point] | –
CCN(CC)CCNCc1ccc(OCc2ccc(Cl)nc2)c(OC)c1 | inconclusive [inhibitor, single point] | –
Cc1cc(C)c2c(n1)SCCN2C(=O)Nc1ccc(C(=O)Nc2ccc(C(C)C)cc2)cc1 | inconclusive [inhibitor, single point] | –
C/C=C/c1ccc(OCC(=O)Nc2ccncc2)c(OC)c1 | inconclusive [inhibitor, single point] | –
CC(=O)Nc1ccc(SCC(=O)c2cc(C)n(CC(F)(F)F)c2C)cc1 | inconclusive [inhibitor, partial curve] | –
CCCOC(=O)c1ccc(O)cc1 | inconclusive [inhibitor, single point] | –
C[C@H](NC(=O)c1ccccc1)C(=O)OCC(=O)Nc1ccc(Cl)cn1 | – | inactive: -26.1%
C=CCn1c(CCNC(=O)c2cccs2)n[nH]c1=S | – | inactive: -7.36%
COc1cc(CCC(=O)Nc2sccc2C#N)cc(OC)c1OC | inconclusive [inhibitor, single point] | –
CC(C)C(=O)Nc1cccc(NC(=O)c2ccc(Cl)cc2Cl)c1 | inconclusive [inhibitor, partial curve, poor fit] | –
Cc1cc(C)c(C(=O)COc2cccnc2[N+](=O)[O-])cc1C | active: 5.8 µM | –
Cc1cccc(C)c1N=Cc1c(C(F)(F)F)[nH][nH]c1=O | – | inactive: -12.7%
Cc1cc(C(=O)CN2C(=O)NC3(CCCc4ccccc43)C2=O)c(C)n1Cc1cccs1 (stereo unspecified) | inconclusive [inhibitor, single point] | –
CCOc1ccc(-n2nc(CO)c(C(=O)NCc3cccc(OC)c3)n2)cc1 | inconclusive [inhibitor, single point] | –
CC(C)(C)C1CCC(C(=O)Nc2ccccc2)CC1 (stereo unspecified) | inconclusive [inhibitor, single point] | –
